Data published in PMC5120144.
Results are given in words; binding and its absence hold for the method and conditions named. For some of these results: In cells and extracts the contact can be indirect. Some binding calls cover weakened binding; strength is not graded here. For some of these results: Where a sequence is shown, tags or fusion partners need not be part of it.

The chains behind the UniProt entries cited, without tags or fusion partners. Residues count along the entry.
UniProt Q4WZB4, residues 19-664: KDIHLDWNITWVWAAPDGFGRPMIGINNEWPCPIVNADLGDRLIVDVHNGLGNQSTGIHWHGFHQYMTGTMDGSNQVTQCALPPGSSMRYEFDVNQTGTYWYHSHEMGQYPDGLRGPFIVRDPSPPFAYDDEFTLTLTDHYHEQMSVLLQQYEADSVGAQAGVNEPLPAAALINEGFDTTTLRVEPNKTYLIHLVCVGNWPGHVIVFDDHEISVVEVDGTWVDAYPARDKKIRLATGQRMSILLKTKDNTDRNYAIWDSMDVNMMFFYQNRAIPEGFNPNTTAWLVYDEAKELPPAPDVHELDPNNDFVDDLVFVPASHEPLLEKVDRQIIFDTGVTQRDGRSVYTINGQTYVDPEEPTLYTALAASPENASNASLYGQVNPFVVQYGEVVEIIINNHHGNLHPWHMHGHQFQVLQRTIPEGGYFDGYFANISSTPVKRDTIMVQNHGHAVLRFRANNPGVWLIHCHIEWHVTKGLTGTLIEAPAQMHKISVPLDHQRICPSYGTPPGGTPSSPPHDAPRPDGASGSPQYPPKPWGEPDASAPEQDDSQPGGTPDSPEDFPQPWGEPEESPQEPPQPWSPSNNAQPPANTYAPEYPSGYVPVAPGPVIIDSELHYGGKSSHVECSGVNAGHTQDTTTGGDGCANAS
UniProt E9RBR0, residues 18-587: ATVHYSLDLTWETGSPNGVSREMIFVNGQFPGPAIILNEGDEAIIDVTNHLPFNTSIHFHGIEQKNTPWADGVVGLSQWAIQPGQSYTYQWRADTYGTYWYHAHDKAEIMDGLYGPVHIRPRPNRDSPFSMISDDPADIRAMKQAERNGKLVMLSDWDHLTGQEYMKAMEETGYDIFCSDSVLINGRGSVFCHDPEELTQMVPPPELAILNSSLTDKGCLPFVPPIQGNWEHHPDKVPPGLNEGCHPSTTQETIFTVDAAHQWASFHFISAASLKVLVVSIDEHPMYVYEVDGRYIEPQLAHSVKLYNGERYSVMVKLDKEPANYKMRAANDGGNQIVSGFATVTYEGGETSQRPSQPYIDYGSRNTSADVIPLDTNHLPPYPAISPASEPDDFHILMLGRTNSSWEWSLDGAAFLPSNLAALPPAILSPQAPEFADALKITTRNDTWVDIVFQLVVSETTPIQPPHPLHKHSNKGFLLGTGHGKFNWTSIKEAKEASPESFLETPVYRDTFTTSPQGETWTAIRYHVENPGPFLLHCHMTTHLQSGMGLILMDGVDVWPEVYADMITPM
UniProt Q4WZB3: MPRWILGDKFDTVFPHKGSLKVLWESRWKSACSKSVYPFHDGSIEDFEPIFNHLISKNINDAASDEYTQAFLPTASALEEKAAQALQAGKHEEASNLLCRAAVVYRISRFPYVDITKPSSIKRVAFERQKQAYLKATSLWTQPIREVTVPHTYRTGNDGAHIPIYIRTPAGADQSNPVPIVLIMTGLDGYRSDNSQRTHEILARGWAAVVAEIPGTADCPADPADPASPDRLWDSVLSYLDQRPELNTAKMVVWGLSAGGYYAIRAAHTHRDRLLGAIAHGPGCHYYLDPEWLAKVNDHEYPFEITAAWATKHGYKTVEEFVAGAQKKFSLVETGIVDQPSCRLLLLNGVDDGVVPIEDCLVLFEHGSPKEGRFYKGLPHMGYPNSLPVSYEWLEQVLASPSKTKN
UniProt E9QUT3: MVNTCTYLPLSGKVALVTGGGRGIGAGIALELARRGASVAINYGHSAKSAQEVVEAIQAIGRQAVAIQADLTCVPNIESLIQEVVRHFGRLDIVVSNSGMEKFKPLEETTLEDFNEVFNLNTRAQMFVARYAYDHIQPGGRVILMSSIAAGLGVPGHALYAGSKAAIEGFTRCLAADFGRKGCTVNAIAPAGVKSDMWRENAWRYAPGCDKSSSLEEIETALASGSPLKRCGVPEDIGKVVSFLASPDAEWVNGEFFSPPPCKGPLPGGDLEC

T1: Arp1-GFP (Aspergillus fumigatus), O14434
T1 chain: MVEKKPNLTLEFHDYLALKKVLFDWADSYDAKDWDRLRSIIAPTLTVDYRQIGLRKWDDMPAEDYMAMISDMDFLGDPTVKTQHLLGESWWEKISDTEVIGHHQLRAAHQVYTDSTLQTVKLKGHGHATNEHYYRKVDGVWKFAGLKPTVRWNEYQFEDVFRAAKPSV

B1: Arp1-GFP (enzyme, UniProt O14434 1-168)
chain: MVEKKPNLTLEFHDYLALKKVLFDWADSYDAKDWDRLRSIIAPTLTVDYRQIGLRKWDDMPAEDYMAMISDMDFLGDPTVKTQHLLGESWWEKISDTEVIGHHQLRAAHQVYTDSTLQTVKLKGHGHATNEHYYRKVDGVWKFAGLKPTVRWNEYQFEDVFRAAKPSV
B2: Arp1-GFP, O14434 1-168 (enzyme)
chain: MVEKKPNLTLEFHDYLALKKVLFDWADSYDAKDWDRLRSIIAPTLTVDYRQIGLRKWDDMPAEDYMAMISDMDFLGDPTVKTQHLLGESWWEKISDTEVIGHHQLRAAHQVYTDSTLQTVKLKGHGHATNEHYYRKVDGVWKFAGLKPTVRWNEYQFEDVFRAAKPSV

Key:
[1] = target: Abr1-GFP (Aspergillus fumigatus) (UniProt Q4WZB4); test: SEC; total proteins from vegetative hyphae of tef1-promoter GFP strains (each enzyme expressed alone); Superdex 200 10/300 GL, 25 mM HEPES pH 7.5, 300 mM NaCl, 2 mM EDTA, 1% DDM, 1% NP-40; GFP fluorescence of each fraction
[2] = target: Abr2-GFP (Aspergillus fumigatus) (UniProt E9RBR0); test: as above
[3] = target: Ayg1-FLAG (Aspergillus fumigatus) (UniProt Q4WZB3); test: co-IP; total proteins from conidia; beads coated with anti-FLAG antibodies, Western blots probed with anti-GFP antibodies; tagged proteins under their native promoters
[4] = target: Abr1-FLAG (Aspergillus fumigatus) (UniProt Q4WZB4); test: as above
[5] = target: Arp2-GFP (Aspergillus fumigatus) (UniProt E9QUT3); test: SEC; total proteins from vegetative hyphae of tef1-promoter GFP strains (each enzyme expressed alone); Superdex 200 10/300 GL, 25 mM HEPES pH 7.5, 300 mM NaCl, 2 mM EDTA, 1% DDM, 1% NP-40; GFP fluorescence of each fraction
[6] = target: Ayg1-GFP (Aspergillus fumigatus) (UniProt Q4WZB3); test: as above
[7] = target: T1, Arp1-GFP (Aspergillus fumigatus), O14434; test: as above; conditions: remark: other sources report otherwise

Molecule | binding [3] | binding [4] | further results
Abr1-GFP (from UniProt Q4WZB4 19-664) (enzyme) |  |  | binding [1]: no binding
Abr2-GFP (from UniProt E9RBR0 18-587) (enzyme) |  |  | binding [2]: no binding
Arp2-GFP (from UniProt E9QUT3 1-273) (enzyme) | binds | binds | binding [5]: no binding
Ayg1-GFP (from UniProt Q4WZB3 1-406) (enzyme) |  | binds | binding [6]: no binding
B1 | binds | binds | 
B2 |  |  | binding [7]: no binding
